The list shows a part of the results.
Molecular target: T1, MBP-FoxP1dN (Mus musculus, UniProt P58462 326-579)
T1 sequence: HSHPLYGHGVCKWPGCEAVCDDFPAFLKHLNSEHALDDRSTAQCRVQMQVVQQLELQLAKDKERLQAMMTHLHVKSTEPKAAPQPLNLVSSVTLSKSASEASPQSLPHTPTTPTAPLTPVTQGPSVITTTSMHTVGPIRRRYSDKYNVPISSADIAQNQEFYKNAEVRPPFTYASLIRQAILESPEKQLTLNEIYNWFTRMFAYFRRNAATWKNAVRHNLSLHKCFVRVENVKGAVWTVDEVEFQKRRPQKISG
Assay: PD-seq (MBP pull-down with sequencing); 20 mM Tris-HCl pH 7.5, 100 mM NaCl, 1.5 mM MgCl2, 0.4 uM protein, 0.1 uM dsDNA library, 30 min, room temperature, amylose pull-down; high values mean tight binding
Details: protein: recombinant; tags: His6-MBP; chain copies: 2; dsDNA, one strand shown
How it was run: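 A degenerate double-stranded DNA library, filled in with Klenow, was added at 0.1 µM to 0.4 µM His6-MBP-tagged mouse FoxP3 or FoxP1 fragment lacking the N-terminus, expressed in E. coli. Incubation lasted 30 min at room temperature in Tris pH 7.5 buffer with NaCl and MgCl2, after which complexes were collected on amylose resin, washed three times, digested with proteinase K to free the DNA, barcoded by PCR and sequenced by Illumina. Binding is the pooled-replicate reads-per-million enrichment of pull-down over input.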

Sequence | binding signal
GATGATTGTTCTCCCAGCTGATGAATTGCTGAGATCGAGTAAACAAATTTTCCTAATCTTTCTGTTCAAGCGCCATCTAC | 0.969 RPM ratio (pull-down/input)
GATGATTGTTCTCCCAGCTGATGAATTCGGTTCCTCGAGTAAACAAATTTTCCTAATCTTTCTGTTCAAGCGCCATCTAC | 0.807 RPM ratio (pull-down/input)
GATGATTGTTCTCCCAGCTGATGAATTTTTAACCTCGAGTAAACAAATTTTCCTAATCTTTCTGTTCAAGCGCCATCTAC | 0.865 RPM ratio (pull-down/input)
GATGATTGTTCTCCCAGCTGATGAATTGGTGCGCTCGAGTAAACAAATTTTCCTAATCTTTCTGTTCAAGCGCCATCTAC | 0.923 RPM ratio (pull-down/input)
GATGATTGTTCTCCCAGCTGATGAATTTCGGGGATCGAGTAAACAAATTTTCCTAATCTTTCTGTTCAAGCGCCATCTAC | 0.808 RPM ratio (pull-down/input)
GATGATTGTTCTCCCAGCTGATGAATTCTTCCACTCGAGTAAACAAATTTTCCTAATCTTTCTGTTCAAGCGCCATCTAC | 0.895 RPM ratio (pull-down/input)
GATGATTGTTCTCCCAGCTGATGAATTTCTGTGATCGAGTAAACAAATTTTCCTAATCTTTCTGTTCAAGCGCCATCTAC | 1.02 RPM ratio (pull-down/input)
GATGATTGTTCTCCCAGCTGATGAATTCCCCTGGTCGAGTAAACAAATTTTCCTAATCTTTCTGTTCAAGCGCCATCTAC | 0.72 RPM ratio (pull-down/input)
GATGATTGTTCTCCCAGCTGATGAATTCCCTGGGTCGAGTAAACAAATTTTCCTAATCTTTCTGTTCAAGCGCCATCTAC | 0.764 RPM ratio (pull-down/input)
GATGATTGTTCTCCCAGCTGATGAATTACAGTGCTCGAGTAAACAAATTTTCCTAATCTTTCTGTTCAAGCGCCATCTAC | 1 RPM ratio (pull-down/input)
GATGATTGTTCTCCCAGCTGATGAATTACAGTGGTCGAGTAAACAAATTTTCCTAATCTTTCTGTTCAAGCGCCATCTAC | 0.994 RPM ratio (pull-down/input)
GATGATTGTTCTCCCAGCTGATGAATTTCTACCGTCGAGTAAACAAATTTTCCTAATCTTTCTGTTCAAGCGCCATCTAC | 0.893 RPM ratio (pull-down/input)
GATGATTGTTCTCCCAGCTGATGAATTACGCATGTCGAGTAAACAAATTTTCCTAATCTTTCTGTTCAAGCGCCATCTAC | 1.05 RPM ratio (pull-down/input)
GATGATTGTTCTCCCAGCTGATGAATTGAGTGAGTCGAGTAAACAAATTTTCCTAATCTTTCTGTTCAAGCGCCATCTAC | 0.868 RPM ratio (pull-down/input)
GATGATTGTTCTCCCAGCTGATGAATTGGGAGATTCGAGTAAACAAATTTTCCTAATCTTTCTGTTCAAGCGCCATCTAC | 0.878 RPM ratio (pull-down/input)
GATGATTGTTCTCCCAGCTGATGAATTTTCTTCTTCGAGTAAACAAATTTTCCTAATCTTTCTGTTCAAGCGCCATCTAC | 0.985 RPM ratio (pull-down/input)

Sequence | binding signal
GATGATTGTTCTCCCAGCTGATGAATTAGTAAGTTCGAGTAAACAAATTTTCCTAATCTTTCTGTTCAAGCGCCATCTAC | 0.984 RPM ratio (pull-down/input)
GATGATTGTTCTCCCAGCTGATGAATTCACGACGTCGAGTAAACAAATTTTCCTAATCTTTCTGTTCAAGCGCCATCTAC | 0.923 RPM ratio (pull-down/input)
GATGATTGTTCTCCCAGCTGATGAATTAGCATTATCGAGTAAACAAATTTTCCTAATCTTTCTGTTCAAGCGCCATCTAC | 1.28 RPM ratio (pull-down/input)
GATGATTGTTCTCCCAGCTGATGAATTCCGATGTTCGAGTAAACAAATTTTCCTAATCTTTCTGTTCAAGCGCCATCTAC | 0.867 RPM ratio (pull-down/input)
GATGATTGTTCTCCCAGCTGATGAATTCTTGGCGTCGAGTAAACAAATTTTCCTAATCTTTCTGTTCAAGCGCCATCTAC | 0.895 RPM ratio (pull-down/input)
GATGATTGTTCTCCCAGCTGATGAATTAGCGCAGTCGAGTAAACAAATTTTCCTAATCTTTCTGTTCAAGCGCCATCTAC | 0.971 RPM ratio (pull-down/input)
GATGATTGTTCTCCCAGCTGATGAATTATTGGCTTCGAGTAAACAAATTTTCCTAATCTTTCTGTTCAAGCGCCATCTAC | 1.1 RPM ratio (pull-down/input)
GATGATTGTTCTCCCAGCTGATGAATTTAGTGCCTCGAGTAAACAAATTTTCCTAATCTTTCTGTTCAAGCGCCATCTAC | 0.993 RPM ratio (pull-down/input)
GATGATTGTTCTCCCAGCTGATGAATTGCGTCCATCGAGTAAACAAATTTTCCTAATCTTTCTGTTCAAGCGCCATCTAC | 1.08 RPM ratio (pull-down/input)
GATGATTGTTCTCCCAGCTGATGAATTAGATACTTCGAGTAAACAAATTTTCCTAATCTTTCTGTTCAAGCGCCATCTAC | 1.06 RPM ratio (pull-down/input)
GATGATTGTTCTCCCAGCTGATGAATTTTCGTTTTCGAGTAAACAAATTTTCCTAATCTTTCTGTTCAAGCGCCATCTAC | 1.22 RPM ratio (pull-down/input)
GATGATTGTTCTCCCAGCTGATGAATTAGGGCGTTCGAGTAAACAAATTTTCCTAATCTTTCTGTTCAAGCGCCATCTAC | 0.896 RPM ratio (pull-down/input)
GATGATTGTTCTCCCAGCTGATGAATTGCTTTGATCGAGTAAACAAATTTTCCTAATCTTTCTGTTCAAGCGCCATCTAC | 1.06 RPM ratio (pull-down/input)
GATGATTGTTCTCCCAGCTGATGAATTAGTGGGATCGAGTAAACAAATTTTCCTAATCTTTCTGTTCAAGCGCCATCTAC | 0.946 RPM ratio (pull-down/input)
GATGATTGTTCTCCCAGCTGATGAATTCGGGCGATCGAGTAAACAAATTTTCCTAATCTTTCTGTTCAAGCGCCATCTAC | 0.856 RPM ratio (pull-down/input)
GATGATTGTTCTCCCAGCTGATGAATTATGGCGTTCGAGTAAACAAATTTTCCTAATCTTTCTGTTCAAGCGCCATCTAC | 1.05 RPM ratio (pull-down/input)
